According to PMC4336329 (PLoS ONE, 2015):
Out of some 310,000 compounds screened, about 2,200 (0.71%) showed an effect of 50% or more. The effect is printed as a negative number. Some of the results follow.

target: human ether-à-go-go-related gene (hERG) potassium channel (human, UniProt Q12809); experiment: primary screen, population patch clamp on CHO cells stably expressing hERG
Sequence (Q12809 whole entry, looked up): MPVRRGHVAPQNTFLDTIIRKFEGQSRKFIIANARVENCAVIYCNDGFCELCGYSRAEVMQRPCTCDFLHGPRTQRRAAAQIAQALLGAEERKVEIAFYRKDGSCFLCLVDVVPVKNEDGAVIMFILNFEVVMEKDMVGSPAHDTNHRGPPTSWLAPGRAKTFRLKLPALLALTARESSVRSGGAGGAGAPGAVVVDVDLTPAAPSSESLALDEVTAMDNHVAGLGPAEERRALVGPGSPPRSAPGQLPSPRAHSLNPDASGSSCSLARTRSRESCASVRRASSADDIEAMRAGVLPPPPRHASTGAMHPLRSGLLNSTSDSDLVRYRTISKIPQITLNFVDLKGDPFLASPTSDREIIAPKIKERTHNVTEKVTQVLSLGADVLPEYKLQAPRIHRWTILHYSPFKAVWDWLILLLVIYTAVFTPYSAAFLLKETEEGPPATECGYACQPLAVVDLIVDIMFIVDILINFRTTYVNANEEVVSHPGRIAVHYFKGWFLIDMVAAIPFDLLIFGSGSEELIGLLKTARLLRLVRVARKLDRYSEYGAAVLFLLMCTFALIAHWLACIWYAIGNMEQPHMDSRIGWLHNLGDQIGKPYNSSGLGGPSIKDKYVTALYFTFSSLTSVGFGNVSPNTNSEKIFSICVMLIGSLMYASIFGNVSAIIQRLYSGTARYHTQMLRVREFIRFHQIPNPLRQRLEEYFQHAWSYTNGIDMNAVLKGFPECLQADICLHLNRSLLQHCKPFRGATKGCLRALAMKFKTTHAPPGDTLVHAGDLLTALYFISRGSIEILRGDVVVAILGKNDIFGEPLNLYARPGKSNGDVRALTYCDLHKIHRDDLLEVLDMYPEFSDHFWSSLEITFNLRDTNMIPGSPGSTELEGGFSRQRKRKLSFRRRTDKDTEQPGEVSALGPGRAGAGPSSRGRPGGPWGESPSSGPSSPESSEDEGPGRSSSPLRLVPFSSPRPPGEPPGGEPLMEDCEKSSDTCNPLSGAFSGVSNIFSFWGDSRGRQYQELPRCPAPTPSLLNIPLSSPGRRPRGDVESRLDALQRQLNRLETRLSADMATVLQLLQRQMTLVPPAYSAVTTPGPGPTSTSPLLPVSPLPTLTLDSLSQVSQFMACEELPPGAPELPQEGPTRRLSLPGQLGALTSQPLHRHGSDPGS

SMILES | hERG current change (%, negative = inhibition) at 1uM [%]
CCc1nnc(NC(=O)CSc2nc(C3CCCCC3)nc3ccccc23)s1 | 4.49
COc1ccccc1OCC(=O)NCCc1nc2ccccc2[nH]1 | 9.88
Cn1c(C(=O)Nc2ccccc2)cc2sccc21 | 12.5
CCn1c(/C=C/c2ccccc2[N+](=O)[O-])nc2ccccc2c1=O | 7.78
COc1cccc(=O)c2c(C)n(-c3cc(C)cc(C)c3)c(C)c12 | 5.71
Cc1cccc(C)c1NC(=O)CSc1nc(C2CC2)nc2ccccc12 | 13.2
COc1cc(N2C(=O)C=CC2=O)c(OC)cc1Cl | 13.5
Fc1ccccc1CNCCc1c[nH]c2ccccc12.O=C(O)C(=O)O | 7.97
Cc1ccc(S(=O)(=O)N2CCCC(C(=O)NC3CC3)C2)cc1 (stereo not drawn) | 7.78
Cc1csc2c(=O)sc(NC(=O)c3ccc(F)cc3)nc12 | 8.23
COc1cc(OC)c(NC(=O)c2c(-c3ccccc3)noc2C)cc1Cl | 4.68
CCCOC(=O)c1ccc(Oc2c(-c3ccc(O)cc3O)n[nH]c2C)cc1 | -3.83
C=CCSc1nc(NC)c2sccc2n1 | -20.2
CCn1c(C)nc2cc(C(=O)N/N=C/c3ccc(N4CCOCC4)cc3)ccc21 | 15.5
CCn1c(=O)n(CC)c2cc(N)ccc21.Cl | 23.7
Cc1cccc(NC(=O)c2cccc(C(F)(F)F)c2)c1 | 7.48
Cc1cc(C)cc(N2C(=O)CC(n3ccnc3)C2=O)c1 (stereo not drawn) | 6.75
COc1ccccc1C1CCCN1Cc1nc(-c2cc3c(cc2Cl)OCO3)oc1C (stereo not drawn) | 1.7
CCCCc1cc(=O)oc2cc(OCc3nn[nH]n3)c(Cl)cc12 | 9.53
CCOC(=O)N1CCN(C(=O)c2cc3c(s2)-c2c(C)cccc2OC3)CC1 | -0.514
O=S(=O)(c1ccc2ccccc2c1)N1CCC(c2nc(-c3ccncc3)no2)CC1 | 0.633
O=c1c2cn[nH]c2[nH]c(=S)n1-c1cccc2ccccc12 | -0.557
Clc1ccc(Cn2nnc(-c3ccccc3)n2)cc1 | 16.7

SMILES | hERG current change (%, negative = inhibition) at 1uM [%]
CCOCCCNC(=O)C(c1ccc(C)cc1)N(Cc1ccc2c(c1)OCO2)C(=O)c1ccccn1 (stereo not drawn) | -8.51
CC(C)O.CCc1nnc(NS(=O)(=O)c2ccc(NC(=O)C(c3ccccc3)c3ccccc3)cc2)s1 | 6.13
CCCCC(=O)Nc1cc(OCC)c(NC(=S)NC)cc1OCC | 3
Cc1ccccc1C(=O)N1CCC(C(=O)N(C)CCOc2ccccc2)CC1 | 13.6
CCOC(=O)N1CCN(CC(=O)c2ccc(O)c(C)c2O)CC1 | 18.4
CN(C)c1ccc(/C=c2\sc3n(c2=O)CCCN=3)cc1 | 4.95
COc1ccc(CN(CC2CCCO2)C(=O)CN2C(=O)C(C)Oc3ccc(C)cc32)cc1OC (stereo not drawn) | 1.34
CN1C(=O)C(C)(C)c2cc(S(=O)(=O)N3CCN(c4cccc(Cl)c4)CC3)ccc21 | 2.24
C[C@@H](C(=O)NCc1ccccc1)N1C(=O)C2CC=CCC2C1=O (stereo partly drawn) | 4.46
O=S1(=O)CCO[C@H]2Cc3ccccc3[C@H]2N1Cc1ccc(F)cc1 | -11.8
CC(=O)c1c(C)[nH]c(C(=O)O)c1C | 9.2
Cc1ccc(-c2nnn(CC(=O)N(Cc3ccco3)C(C(=O)NC(C)(C)C)c3ccncc3)n2)o1 (stereo not drawn) | 6.8
Cc1ccccc1C(=O)Nc1ccc(CN2CCOCC2)cc1 | 9.27
CC(=O)N(Cc1ccc(F)cc1)Cc1nc2ccccc2c(=O)[nH]1 | -3.99
CCOC(=O)c1cccnc1SCC(=O)NC(C)CC (stereo not drawn) | 13.7
CCOC(=O)N1CCN(S(=O)(=O)c2ccc3c(c2)C(C)C(=O)N3)CC1 (stereo not drawn) | 3.41
CCCCNC(=S)Nc1cccc2cnccc12 | 1.29
COCC1CCN(C(=O)CCc2nnc(C3(c4ccc(Cl)cc4)CCC3)o2)CC1 | 1.48
CC1(C)CC(=O)C(C(=O)/C=C/c2ccco2)C(=O)C1 | 13.8
COCc1cc(C)c(C#N)c(=S)[nH]1 | -12.8
CC1Cc2ccccc2N1C(=O)Cn1cc([N+](=O)[O-])cn1 (stereo not drawn) | 3.64
Cc1cc2nc3c(c(C(F)(F)F)n2n1)CCCC3 | 13
CCN(CC)CCN(C(=O)/C=C/c1cccs1)c1nc2ccc(C)cc2s1.Cl | 2.14

SMILES | hERG current change (%, negative = inhibition) at 1uM [%]
O=C1c2ccccc2C(O)(c2ccccc2)N1c1ccncc1 (stereo not drawn) | 9.69
COc1cc(C(C)=O)ccc1Oc1ccc(S(=O)(=O)N2CCOCC2)cn1 | 12.5
COc1ccc(NC(=O)Cn2nnc(C(=O)NCc3cccs3)c2N)cc1OC | 13.5
CCN(CCCCCN(C)C)Cc1cc2ccccc2o1.Cl | 20
COC(=O)c1ccc(NC(=S)NC2CCc3ccccc32)cc1 (stereo not drawn) | 15.9
[O-]/C(=C(\C(=S)NCc1ccco1)[n+]1ccccc1)c1ccccc1Br | 6.24
CCc1ccccc1NC(=S)N(CCN(C)C)C(C)c1ccccn1 (stereo not drawn) | -7.96
CCOC(=O)COc1ccc2c(c1)C(=O)CC1(CCCCC1)O2 | 7.98
CN1CCN(CC(=O)N2N=C(c3cccs3)CC2c2ccco2)CC1 (stereo not drawn) | -3.23
CNS(=O)(=O)c1ccc(Oc2ccc(S(=O)(=O)NC)cc2)cc1 | 12.4
CN1CCN(c2c([N+](=O)[O-])cnc3ccccc23)CC1.Cl | 5.69
CCn1ccnc1CN(C)C(=O)c1cc(COc2ccc(OC)c3ccccc23)on1 | 3.69
Cc1ccc(-c2nnn(CC(=O)N(c3ccccc3)C(C(=O)NC3CCCC3)c3ccco3)n2)o1 (stereo not drawn) | -4.21
CCOc1ccc2nc(NC(NC(=O)CC)(C(=O)OC)C(F)(F)F)sc2c1 (stereo not drawn) | -8.97
O=C(CN1CCN(S(=O)(=O)c2cccc(Br)c2)CC1)N1CCCCC1 | -1.18
O=C(Cc1ccc(Br)cc1)N1CCN(Cc2ccccc2)CC1 | 4.38
CCOc1ccc(C(=S)N2CCN(C)CC2)cc1 | -84.3
O=C(COc1ccc(C(=O)c2ccccc2)cc1)NC1CCCCCC1 | 3.59
CC(C)c1oc(=O)cc2c1[C@@H](O)[C@H]1OC(=O)[C@@]3(C)CC[C@@H](O)[C@@]2(C)C13 (stereo partly drawn) | 6.93
CCS(=O)(=O)N1CCCC(C(=O)NCc2cccc(OC)c2)C1 (stereo not drawn) | 1.18
CCCCC(=O)NC(c1cccc([N+](=O)[O-])c1)c1c(OC(C)=O)ccc2ccccc12 (stereo not drawn) | -2.27
Cc1cc(=O)oc(C)c1C(=O)Nc1cnc2ccccc2c1 | 2.7
Cc1ccc(OCC(=O)NC2CCS(=O)(=O)C2)cc1 (stereo not drawn) | 4.41

SMILES | hERG current change (%, negative = inhibition) at 1uM [%]
CN(Cc1ccccc1F)C(=O)CCCNC(=O)c1ccc(Cl)cc1 | -13.3
CC(C)OCCCNC(=O)C(=O)N/N=C/c1ccc(OCc2ccccc2)cc1 | 12.5
O=C(CSc1nnc(-c2ccc(Cl)cc2Cl)n1C1CCCCC1)NC1CCS(=O)(=O)C1 (stereo not drawn) | 3.43
Cc1ccccc1C(=O)Oc1ccccc1C(=O)N1CCOCC1 | -3.11
Cn1c(N)c(C(=O)COC(=O)/C=C/c2cccc(C(F)(F)F)c2)c(=O)n(C)c1=O | 2.1
Cc1ccccc1Nc1nc(N)nc(-c2oc3ccccc3c2C)n1 | 10.5
O=C1NC(=S)S/C1=C\c1ccc2ccccc2c1 | 5.02
Cc1cccc(NC(=O)c2ccc3c(Cl)c4c(nc3c2)CCCC4)n1 | 4.82
COc1ccc(N2C(=O)C3C4C=CC(C5CC45)C3C2=O)c([N+](=O)[O-])c1 (stereo not drawn) | 11.8
COCCCN(CC(=O)Nc1ccc(N2CCOCC2)cc1)S(=O)(=O)c1ccc(Cl)cc1 | 5.96
Cc1cc(C)n(-c2nc(C(F)(F)F)nc3ccccc23)n1 | 15
CCOc1ccc(CNC(=O)C2CC(=O)N(C3CCCC3)C2)cc1OC (stereo not drawn) | 12.1
CCOC(=O)CN1C(=O)S/C(=C/c2cccc([N+](=O)[O-])c2O)C1=O | 10.9
C=CCn1c(=O)c(C(=O)NCc2ccc(Cl)cc2)c(O)c2ccccc21 | 11.3
C/C(=N\NC(=O)Cc1ccc(Cl)cc1)c1ccccn1 | -4.9
COc1ccccc1N1CCN(S(=O)(=O)c2c(C)[nH]c(C)c2C(=O)N2CCCC2)CC1 | 11.9
CN1CCN(/N=C/c2ccc(Cl)c(Cl)c2)CC1 | -10.8
O=C(Nc1nc2ccccc2[nH]1)c1cccc(Cl)c1 | 16.9
Cc1cc(C(=O)OCC(=O)NC(=O)c2cccn2C)c2ccccc2n1 | 8.72
COc1cccc(NC(=O)Cn2c3ccccc3c3nc4n(c(=O)c32)CCS4)c1 | 2.19
Cc1nn2cc(-c3ccc(-c4ccccc4)cc3)nc2s1 | 10.7
